Measurements taken from PubChem BioAssay AID485344 (National Center for Advancing Translational Sciences (NCATS), 2010).
Among all 340,000 compounds or so, about 6,900 (2%) were called active. Rule as the data show it: active = inhibition above about 30%; inactive = below that, where a call was filed. The list shows a part of the results, in another mix than the full data. Entries without a call were filed so in the source.
Also: 0% is about no effect.

The molecules below were run against D(2) dopamine receptor (Homo sapiens) (UniProt P14416) (assay: HTS Assay for Allosteric Antagonists of the Human D2 Dopamine Receptor: Primary Screen for Antagonists). Settings: HEK293 TREx D2 cells, calcium flux, dopamine EC80; at 10 µM; stronger effect = higher value.
Chain of UniProt P14416 (P14416 whole entry, looked up): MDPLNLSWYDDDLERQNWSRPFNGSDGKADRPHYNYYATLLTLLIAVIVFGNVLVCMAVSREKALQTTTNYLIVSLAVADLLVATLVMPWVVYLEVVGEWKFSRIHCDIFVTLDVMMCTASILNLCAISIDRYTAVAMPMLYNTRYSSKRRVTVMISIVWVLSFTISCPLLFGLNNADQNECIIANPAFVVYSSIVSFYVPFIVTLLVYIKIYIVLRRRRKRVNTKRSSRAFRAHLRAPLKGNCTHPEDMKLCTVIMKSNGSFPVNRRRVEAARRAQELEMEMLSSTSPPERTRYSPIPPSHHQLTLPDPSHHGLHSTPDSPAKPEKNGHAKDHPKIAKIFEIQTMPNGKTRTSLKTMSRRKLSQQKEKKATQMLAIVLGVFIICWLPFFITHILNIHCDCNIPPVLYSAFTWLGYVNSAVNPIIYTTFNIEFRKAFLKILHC
Procedure, shortened: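 Calcium flux kinetic readout in an inducible HEK293 TREx D2 line plated overnight at 30 C. After 180 s compound exposure, an EC80 dopamine challenge follows with another 180 s kinetic read to detect antagonism.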
Molecule `CCOc1ccc(NCc2cccn2-c2nnc(N3CCC(C(=O)NCc4ccc(C)cc4)CC3)s2)cc1` has an inhibition of -9.71%. For `CCc1nnc(NC(=O)CSc2nccn2Cc2ccc(F)cc2)s1`, the inhibition was -13.8%. In the case of `COc1ccc(N2CCN(CC(O)COc3ccc(C(C)C)c(C)c3)CC2)cc1` (stereo unspecified), the inhibition is reported as 9.51%. `CC(NC(=O)C(=O)Nc1c2c(nn1-c1ccccc1)CSC2)c1ccccc1` (stereo unspecified) gave an inhibition of 18.2%. In the case of `Cc1ccc2c(c1)c(=O)c(C(=O)c1ccncc1)cn2CC(=O)Nc1ccc(C(C)C)cc1`, the inhibition is reported as -3.48%. For `Cc1ccc(N2CC(NC(=O)c3ccc(Br)o3)CC2=O)cc1C` (stereo unspecified), the inhibition was 24%. Molecule `Cc1nn(CCC(=O)NCc2ccc(N(C)C)cc2)c(=O)c2nn(-c3ccccc3)c(C)c12` has an inhibition of -5.39%. Molecule `COc1cccc(NC(=O)Cn2nc3c4ccccc4n(Cc4cccc(F)c4)cc-3c2=O)c1` has an inhibition of -3.41%. With `O=[N+]([O-])c1ccccc1-c1ccc(CN2CCN(c3ccccc3)CC2)o1` the inhibition was active: 52.3%. With `O=C(NC1CC1)c1ccc(Cn2c(SCc3ccccc3F)nc3cccnc32)cc1` the inhibition was -22.9%. In the case of `Cc1cccc(-n2ncc(C(=O)N3CCN(C(=O)c4ccco4)CC3)c2C2CCN(C(=O)OC(C)(C)C)CC2)c1`, the inhibition is reported as -9.34%. `Cc1ccc2c(=O)cc(C(=O)Nc3ccc(S(=O)(=O)Nc4onc(C)c4C)cc3)oc2c1` showed an inhibition of -4.11%. With `COC(=O)c1c(NC(=O)c2nc(SCc3ccc(C)cc3)ncc2Cl)sc2c1CCCC2` the inhibition was 24%. `CCCCCNS(=O)(=O)c1ccc(N2CCCCS2(=O)=O)cc1` gave an inhibition of -3.12%. Molecule `COc1ccc(NC(=O)Cn2c(=O)n(CCC(=O)NCCc3ccc(OC)c(OC)c3)c(=O)c3ccccc32)cc1Cl` has an inhibition of -7.1%. Molecule `CCOCCCNC(=O)c1[nH]c2cc(OC)ccc2c1Sc1ccccc1` has an inhibition of 14.6%. `CCOc1ccc(/C=N/n2c(-c3ccccc3)n[nH]c2=S)cc1` was tested, and the inhibition was active: 41.2%. Molecule `COc1ccc(CCC(=O)NCc2nc3cccnc3n2Cc2ccc(C)cc2)cc1` has an inhibition of 11.8%. In the case of `Cc1ccc(S(=O)(=O)NCC(c2ccco2)N2CCN(c3ccccc3F)CC2)cc1` (stereo unspecified), the inhibition is reported as -28.3%. In the case of `Cc1cccc(N(CC(=O)Nc2cccc(Cl)c2C)S(C)(=O)=O)c1C`, the inhibition is reported as 14.2%. `CC(C)CCNC(=O)c1cccc(-n2cnc3cccnc32)c1` showed an inhibition of 2.51%. `Cc1cc(OC(C)C(=O)NC2CCN(Cc3ccccc3)CC2)c2c(C)cc(=O)oc2c1` (stereo unspecified) was tested, and the inhibition was active: 72.9%. In the case of `Cc1ccc(C)c(N2CCN(S(=O)(=O)c3ccc4c(c3)CC(=O)N4C)CC2)c1`, the inhibition is reported as 2.61%. With `Cc1ccc(C(=O)COC(=O)c2cccc(NC(=O)c3ccc(Br)cc3)c2)cc1` the inhibition was -6.07%. For `Brc1cccc(OCCN2CCc3ccccc3C2)c1`, the inhibition was active: 96.1%. `COc1cccc(CNC(=O)Cn2c(SCC(=O)Nc3ccc(F)cc3)nc3ccccc32)c1` was tested, and the inhibition was 23.1%.
